The list shows a part of the results. Sequences were assembled here from the parent chain. Values near 0.05 are background.
B1: TEV protease; numbered along this chain (parent)
chain: MGESLFKGPRDYNPISSSICHLTNESDGHTTSLYGIGFGPFIITNKHLFRRNNGTLVVQSLHGVFKVKDTTTLQQHLVDGRDMIIIRMPKDFPPFPQKLKFREPQREERICLVTTNFQTKSMSSMVSDTSCTFPSGDGIFWKHWIQTKDGQCGSPLVSTRDGFIVGIHSASNFTNTNNYFTSVPKNFMELLTNQEAQQWVSGWRLNADSVLWGGHKVFMVKPEEPFQPVKEATQL

Variants of: B1
Assay: raw area under fraction-flipped curve 0-4 h after induction (AUC4h, not background-subtracted), DNA-recorder readout of cleavage of the substrate (dimensionless); higher = more cleavage of the substrate by the protease variant
Details: temperature: 34 °C; time window: 0-4 h after rhamnose induction
Description: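 In vivo DNA recorder in E. coli TOP10(DE3) ΔrhaA at 34 °C. Each TEVp single-site mutant (parent TEVp 0) is paired with a single-site variant of the 7-mer TEVs (canonical ENLYFQ|S). The substrate sits between flexible linkers in a Bxb1-sfGFP-TEVs-SsrA fusion, so cleavage stabilises Bxb1 and speeds flipping of a recombination array, read by NGS. The value is the raw area under the fraction-flipped curve over 0-4 h after rhamnose induction (AUC4h), with ≥20 reads per time point. It is not background-subtracted; inactive controls average about 0.047.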
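Note: Bxb1 expression induced with 0.2% (w/v) L-rhamnose at OD600 near 0.5, cultures sampled hourly, flipped fraction per protease–substrate barcode pair counted by paired-end Illumina sequencing.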

Row | Variant | area with substrate ENLYAQS | area with substrate ENLYCQS | area with substrate ENLYDQS | area with substrate ENLYEQS | area with substrate ENLYGQS | area with substrate ENLYIQS | area with substrate ENLYKQS | area with substrate ENLYLQS | area with substrate ENLYNQS | area with substrate ENLYQQS | area with substrate ENLYRQS | area with substrate ENLYSQS | area with substrate ENLYTQS | area with substrate ENLYYQS | area with substrate ENLYHQS | area with substrate ENLYPQS | area with substrate ENLYVQS | area with substrate ENLYMQS | area with substrate ENLYWQS
1 | L73E | 0.0633 | 0.0621 | 0.0474 | 0.0562 | 0.0518 | 0.0775 | 0.0604 | 0.0487 | 0.0708 | 0.0589 | 0.0699 | 0.0664 | 0.0535 | 0.0551 |  |  |  |  | 
2 | M122I | 0.0519 |  |  |  | 0.0685 | 0.12 | 0.0645 | 0.07 |  | 0.0182 | 0.064 | 0.0621 | 0.0751 |  | 0.0735 | 0.0828 | 0.128 |  | 
3 | F49Y | 0.0656 |  | 0.0612 | 0.0551 | 0.0358 | 0.0906 | 0.057 | 0.0636 | 0.0641 |  | 0.0744 | 0.0616 | 0.0481 | 0.0472 |  | 0.0683 | 0.0741 | 0.07 | 0.0598
4 | C111D | 0.0589 |  | 0.0444 | 0.0667 | 0.0735 | 0.0593 | 0.0565 | 0.0537 | 0.0607 | 0.0585 | 0.066 | 0.0505 | 0.0719 |  | 0.0587 | 0.0529 |  | 0.0648 | 0.065
5 | S18Q | 0.0995 |  | 0.0602 | 0.08 | 0.0603 | 0.159 | 0.0514 |  | 0.0741 | 0.0575 | 0.0651 |  |  | 0.0699 | 0.0843 | 0.0813 |  | 0.111 | 0.093
6 | I85T | 0.0584 | 0.01 | 0.0454 | 0.0532 |  |  | 0.0439 | 0.0581 | 0.0647 |  |  | 0.0663 |  |  | 0.0607 |  | 0.0841 | 0.0616 | 0.0607
7 | Y12M | 0.0716 |  | 0.072 | 0.0661 | 0.0668 | 0.128 | 0.0587 | 0.0761 | 0.0685 | 0.0658 | 0.0649 | 0.0818 | 0.0777 | 0.0646 | 0.0703 | 0.0803 | 0.121 | 0.0796 | 0.0937
8 | Y12C | 0.0563 |  | 0.0561 | 0.065 | 0.0557 | 0.124 | 0.041 | 0.0898 | 0.0684 | 0.0673 | 0.0744 | 0.0724 | 0.0817 | 0.0738 | 0.0698 | 0.0871 | 0.113 | 0.0749 | 0.0846
9 | F41P | 0.0607 | 0.0357 | 0.0546 | 0.0478 | 0.0517 | 0.0492 | 0.0409 | 0.0472 | 0.0484 |  | 0.0338 | 0.0485 |  | 0.0489 | 0.0543 | 0.0431 | 0.0551 | 0.0557 | 0.0455
10 | L99R | 0.0755 |  | 0.0802 | 0.0657 | 0.0901 |  |  | 0.0682 | 0.0821 | 0.0505 |  | 0.0563 | 0.0651 | 0.0709 | 0.0544 | 0.104 | 0.1 | 0.0719 | 0.0691
11 | L99Y | 0.0589 |  |  | 0.0679 | 0.0555 | 0.0797 | 0.0231 |  | 0.0584 | 0.0361 | 0.0659 | 0.0698 | 0.0707 |  | 0.0519 | 0.0751 |  | 0.0568 | 0.0745
12 | F117E | 0.0704 | 0.0949 | 0.0685 | 0.0604 |  | 0.117 | 0.0252 |  | 0.0911 | 0.0662 | 0.0691 | 0.0884 |  |  | 0.0675 | 0.0648 | 0.105 | 0.0811 | 0.0823
13 | L235Q | 0.0785 | 0.0977 | 0.0556 | 0.0712 | 0.0591 | 0.102 | 0.0576 |  | 0.0806 | 0.0622 | 0.0645 | 0.0792 |  | 0.0575 | 0.0695 | 0.0778 | 0.106 | 0.0619 | 0.0771
14 | S158Y | 0.0632 |  | 0.053 |  | 0.049 | 0.0456 | 0.0427 |  |  | 0.052 | 0.0579 | 0.0511 |  |  | 0.0518 | 0.0426 | 0.0608 | 0.0429 | 
15 | D69S | 0.065 | 0.0827 | 0.0596 | 0.0614 | 0.0596 | 0.0748 |  | 0.074 | 0.0723 | 0.0637 | 0.0651 | 0.0754 | 0.074 | 0.0693 | 0.0625 |  |  | 0.0755 | 
16 | K68I | 0.0713 |  | 0.0589 | 0.0675 | 0.0889 | 0.135 | 0.0401 | 0.0986 | 0.0674 | 0.0563 | 0.0403 | 0.0661 |  | 0.0472 | 0.0452 | 0.0683 | 0.121 | 0.0434 | 
17 | V229K | 0.0808 |  | 0.0637 | 0.0205 |  | 0.104 |  |  | 0.0781 | 0.0618 | 0.066 | 0.0724 |  | 0.0881 | 0.0769 | 0.0766 | 0.127 | 0.0927 | 0.152
18 | H76W | 0.0648 |  | 0.0541 | 0.0664 | 0.0684 |  | 0.0706 | 0.0712 | 0.0567 | 0.0601 | 0.047 | 0.0455 |  | 0.0656 | 0.0594 | 0.0627 | 0.0941 | 0.0751 | 0.0727
19 | R160W | 0.058 | 0.0597 |  | 0.0796 |  |  | 0.0772 |  |  |  | 0.0636 |  | 0.1 |  |  | 0.0877 |  | 0.106 | 0.103
20 | R204G | 0.0651 |  | 0.0736 | 0.0605 | 0.067 | 0.114 | 0.0161 |  | 0.0489 | 0.0703 | 0.0573 | 0.0264 | 0.0717 | 0.0762 | 0.0666 | 0.0665 | 0.0913 | 0.087 | 0.05
21 | P9R | 0.0808 |  | 0.0716 | 0.0676 | 0.0749 | 0.144 | 0.0757 | 0.0965 |  | 0.0591 |  |  |  | 0.0556 | 0.0721 | 0.0976 |  | 0.105 | 0.0904
22 | E223N | 0.0512 |  | 0.0606 | 0.0708 | 0.0581 | 0.131 | 0.0527 |  | 0.0644 | 0.0634 |  | 0.0714 |  |  |  | 0.0556 | 0.0731 | 0.0834 | 0.0757
23 | E189T | 0.0666 |  | 0.0526 | 0.0477 | 0.0735 |  | 0.0548 | 0.0929 | 0.0579 | 0.067 | 0.0562 | 0.0844 | 0.0778 | 0.0559 | 0.0671 | 0.069 |  |  | 0.0813
24 | E189N | 0.0841 |  | 0.0656 | 0.0652 | 0.0536 | 0.125 | 0.0377 | 0.0855 | 0.0721 | 0.0587 | 0.0447 |  |  | 0.0688 | 0.0639 | 0.0747 | 0.112 | 0.0758 | 0.0725

From the supplement of paper PMC12217912
